Measurements from the supplement of paper PMC7826260.
The other results are listed elsewhere or left out. One pool of 16,384 single-stranded DNAs met each Rep nickase domain in vitro for 1 h at 37 °C with 3 µM enzyme; only the middle of the 90-letter strands is printed. Values are log2 of uncut reads against the no-enzyme pool; uncut sequences lie near 0, cut ones below; no hit call is given. Counts are relative to all reads; values above 0 arise when much of the pool is cut.

Tests used:
Test in all cases: uncleaved DNA left, log2 of reads against the no-enzyme library (log2 ratio); higher = less cleavage (more negative = more Rep cleavage of the k-mer); sequences stand for … in CTCGTCCG…ACCGGAGA
[1] = tested on: T1, Rep nickase domain of Muscovy duck circovirus
T1 sequence (residues 1-111, tag not shown): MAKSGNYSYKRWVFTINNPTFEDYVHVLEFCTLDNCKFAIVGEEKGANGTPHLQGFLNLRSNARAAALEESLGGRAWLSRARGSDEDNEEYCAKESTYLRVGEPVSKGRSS
Description: (§1)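 A pool of 90-nt single-stranded DNAs with seven random bases just before the constant AC of the nick site (name = the seven bases) was cut by 3 µM recombinant His6-SUMO-tagged Rep nickase domain (300 nM DNA, 50 mM HEPES pH 8.0, 50 mM NaCl, 1 mM MnCl2, 1 h, 37 °C, three replicates). Uncut DNA was amplified and sequenced.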

[2] = tested on: T2, Rep nickase domain of banana bunchy top virus
T2 sequence (residues 1-94, tag not shown): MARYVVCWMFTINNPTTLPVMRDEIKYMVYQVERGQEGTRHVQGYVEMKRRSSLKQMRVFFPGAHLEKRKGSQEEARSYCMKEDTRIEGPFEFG
Description: as §1

[3] = tested on: T3, Rep nickase domain of cabbage leaf curl virus
T3 sequence (residues 1-116, tag not shown): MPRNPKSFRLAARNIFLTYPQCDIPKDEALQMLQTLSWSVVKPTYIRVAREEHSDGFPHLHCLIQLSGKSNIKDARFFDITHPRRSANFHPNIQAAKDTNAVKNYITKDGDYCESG
Description: as §1

[4] = tested on: T4, Rep nickase domain of chickpea chlorotic dwarf virus
T4 sequence (residues 1-124, tag not shown): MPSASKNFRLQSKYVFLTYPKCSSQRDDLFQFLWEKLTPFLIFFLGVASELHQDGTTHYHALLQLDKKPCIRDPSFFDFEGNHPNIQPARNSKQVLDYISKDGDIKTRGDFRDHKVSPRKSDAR
Description: as §1

[5] = tested on: T5, Rep nickase domain of faba bean necrotic yellows virus
T5 sequence (residues 1-98, tag not shown): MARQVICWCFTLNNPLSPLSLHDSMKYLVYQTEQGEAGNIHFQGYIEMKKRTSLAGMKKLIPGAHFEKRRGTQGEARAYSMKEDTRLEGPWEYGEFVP
Description: as §1

[6] = tested on: T6, Rep nickase domain of maize striate mosaic virus
T6 sequence (residues 1-117, tag not shown): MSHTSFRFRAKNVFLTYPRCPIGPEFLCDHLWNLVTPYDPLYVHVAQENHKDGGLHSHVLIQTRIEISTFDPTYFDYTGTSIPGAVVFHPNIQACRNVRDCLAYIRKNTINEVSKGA
Description: as §1

[7] = tested on: T7, Rep nickase domain of porcine circovirus 2
T7 sequence (residues 2-116, tag not shown): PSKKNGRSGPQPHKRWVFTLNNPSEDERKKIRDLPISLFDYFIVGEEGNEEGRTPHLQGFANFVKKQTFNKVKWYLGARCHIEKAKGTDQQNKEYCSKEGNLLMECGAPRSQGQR
Description: as §1

[8] = tested on: T8, Rep nickase domain of tomato golden mosaic virus
T8 sequence (residues 1-124, tag not shown): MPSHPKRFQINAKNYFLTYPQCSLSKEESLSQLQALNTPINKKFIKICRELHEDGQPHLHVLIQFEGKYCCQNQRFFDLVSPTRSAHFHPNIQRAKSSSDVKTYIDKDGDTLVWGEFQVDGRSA
Description: as §1

[9] = tested on: T9, Rep nickase domain of tomato yellow leaf curl virus
T9 sequence (residues 1-136, tag not shown): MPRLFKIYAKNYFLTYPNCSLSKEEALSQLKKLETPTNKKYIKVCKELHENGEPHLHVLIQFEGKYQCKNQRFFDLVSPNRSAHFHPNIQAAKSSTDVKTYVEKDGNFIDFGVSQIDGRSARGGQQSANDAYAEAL
Description: as §1

[10] = tested on: T10, Rep nickase domain of wheat dwarf virus
T10 sequence (residues 1-137, tag not shown): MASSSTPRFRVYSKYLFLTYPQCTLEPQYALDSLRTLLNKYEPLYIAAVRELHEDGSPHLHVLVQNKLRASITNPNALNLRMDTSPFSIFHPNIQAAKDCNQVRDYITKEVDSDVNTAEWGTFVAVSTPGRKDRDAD
Description: as §1

| Sequence | uncleaved DNA left (log2) [1] | uncleaved DNA left (log2) [2] | uncleaved DNA left (log2) [3] | uncleaved DNA left (log2) [4] | uncleaved DNA left (log2) [5] | uncleaved DNA left (log2) [6] | uncleaved DNA left (log2) [7] | uncleaved DNA left (log2) [8] | uncleaved DNA left (log2) [9] | uncleaved DNA left (log2) [10] |
| --- | --- | --- | --- | --- | --- | --- | --- | --- | --- | --- |
| ATTCGAC | 0.0126 | -0.113 | -0.15 | -0.147 | 0.00378 | -0.833 | -0.0229 | -0.0989 | -0.176 | -0.153 |
| GTCACTG | -0.0719 | 0.104 | 0.193 | 0.742 | 0.0652 | 1.64 | 0.0741 | -0.0428 | 0.0142 | 0.0652 |
| AGAGGAA | -0.103 | 0.00319 | 0.195 | 1.32 | -0.127 | 1.48 | 0.113 | 0.079 | -0.193 | -0.0524 |
| GAACCAG | -0.207 | -0.0507 | -0.273 | -0.568 | -0.071 | -0.743 | -0.278 | -0.118 | 0.0219 | -0.0569 |
| CTTGTAA | 0.101 | 0.145 | 0.0162 | -0.518 | 0.0832 | -0.728 | 0.108 | 0.0586 | 0.155 | 0.0936 |
| TGTCGCT | 0.0452 | -0.0281 | -0.236 | -1.17 | -0.00461 | -0.832 | -0.168 | -0.168 | -0.0242 | -0.0733 |
| ATGGCTA | 0.0298 | 0.0245 | -0.136 | -0.271 | -0.0366 | -0.121 | -0.0351 | -0.0203 | -0.0395 | -0.0819 |
| CTATAGT | -3.27 | -0.0691 | -1.96 | -1.65 | 0.014 | -1.34 | -3.3 | -0.454 | 0.0952 | -0.297 |
| GCCGTCA | -0.135 | -0.0626 | 0.175 | 0.0541 | -0.0401 | 0.167 | 0.0517 | -0.0122 | -0.0543 | -0.0729 |
| AATTCGT | -1.5 | -0.709 | -0.876 | -1.42 | -0.0375 | -1.33 | -3.68 | -0.127 | -0.0505 | -0.177 |
| AAACCAG | -0.0112 | 0.0236 | -0.747 | -0.858 | -0.0568 | -1.05 | -0.281 | 0.0156 | 0.0823 | -0.0594 |
| ACTTGGC | 0.0142 | -0.165 | -0.614 | -0.64 | -0.0239 | -1.02 | 0.148 | -0.109 | -0.021 | -0.11 |
| TCTCGCC | 0.00647 | -0.135 | -0.0638 | -0.403 | 0.042 | -0.823 | -0.0277 | -0.0341 | -0.0707 | -0.208 |
| GACTTAA | 0.0761 | 0.0464 | 0.249 | 0.485 | 0.0803 | 0.911 | -0.744 | 0.115 | 0.097 | 0.164 |
| GGTAGCG | 0.0766 | 0.0546 | -0.581 | 0.557 | 0.0331 | -0.518 | 0.181 | 0.0852 | 0.0879 | 0.0219 |
| AACGGAA | 0.0752 | 0.011 | 0.274 | 1.1 | -0.12 | 1.22 | 0.127 | 0.0146 | -0.095 | 0.0794 |
| CAAAGAG | 0.216 | 0.303 | -0.478 | -0.619 | 0.183 | -0.941 | 0.366 | 0.161 | 0.252 | 0.124 |
| CCCTCGT | -0.0242 | -0.0585 | -0.366 | -0.84 | 0.156 | -0.834 | -0.203 | -0.0757 | -0.0382 | -0.0621 |
| AAGACGG | 0.0473 | 0.0565 | 0.107 | 0.739 | 0.0999 | 1.61 | 0.223 | 0.15 | -0.147 | 0.0467 |
| ATGCCCG | 0.146 | 0.0256 | -0.719 | -0.12 | 0.22 | -0.802 | -0.0847 | -0.0471 | -0.0849 | -0.0217 |
| CAGCGTG | 0.213 | 0.136 | -0.149 | 0.0571 | 0.0252 | -0.24 | 0.246 | 0.0927 | 0.0475 | -0.122 |
| CCGTGTG | -0.109 | -0.101 | -0.621 | -0.179 | -0.153 | -0.535 | 0.0335 | 0.0427 | 0.0428 | -0.195 |
| TTTCAGC | 0.0302 | 0.00627 | -0.334 | -0.839 | -0.0328 | -1.1 | 0.0217 | -0.0806 | -0.0342 | -0.0384 |
| AATGCTG | -0.0474 | 0.0137 | 0.307 | 1.73 | -0.00677 | 1.65 | 0.103 | 0.0495 | -0.21 | -0.00906 |
| ACTTTCC | -0.0852 | 0.0947 | 0.00445 | -0.216 | 0.129 | -0.484 | -0.114 | 0.00841 | -0.0715 | 0.103 |
| ATTCAGG | 0.0221 | 0.0609 | 0.372 | 1.22 | 0.121 | 0.981 | 0.119 | 0.0626 | -0.0972 | 0.0574 |
| GGACACT | -0.00536 | -0.0116 | 0.764 | 1.76 | -0.0445 | 2.09 | -0.00214 | -0.155 | -0.0245 | 0.0759 |
| GAGGGCA | 0.0165 | 0.0976 | 0.836 | 1.78 | 0.00226 | 2.08 | 0.25 | 0.0436 | 0.0814 | 0.0629 |
| ATTGGAA | 0.00496 | -0.0316 | 0.193 | 1.01 | -0.0209 | 1.01 | -0.000531 | -0.0303 | -0.162 | -0.0589 |
| GCCCTCG | -0.0235 | -0.0288 | -0.732 | -0.331 | -0.149 | -0.677 | 0.039 | -0.0735 | -0.102 | -0.174 |
